Test results as given in PubChem BioAssay AID588855 (National Center for Advancing Translational Sciences (NCATS), 2011).
The whole screen tested about 410,000 compounds, of which about 5,000 (1.2%) were called active. The shares of active, inactive and inconclusive entries below differ from those in the screen. Calls come from the whole dose curve; as a rule, active = well fitted inhibition curve with a large enough effect; inconclusive = small, poorly fitted or top-dose-only effect; inactive = no such curve, though single readings can be large or run the other way. Potencies of inconclusive entries are doubtful fits and often do not repeat.

Test: qHTS for Inhibitors of TGF-b; note: nearly all actives have a fitted effect of over 65% in size
Conditions: HepG2 CAGA-GFP TGF-b/SMAD3 reporter, GFP fluorescence, 18 h, TGF-beta stimulated, 500 pg/mL final; series mostly up to 46.1 µM; activity, negative = inhibition: at the top concentration
How it was run: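 TGF-beta reporter screen: HEPG2 CAGA-GFP, 1% FBS, 500 pg/mL TGF-beta final, 18 h; per-cell GFP summed per well; curves fitted and categorized by class.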
% is set by controls: 0 for no effect and ±100 for the full control effect; potency is the fitted concentration of half-maximal effect; tags give direction and shape of the fitted curve.

Compound	Potency	activity, negative = inhibition
CCN(C(=O)c1oc2ccc(S(=O)(=O)N3CCCCCC3)cc2c1C)c1ccccc1	inconclusive: 35.5 µM [inhibitor, single point]	
Cc1c(C)n(CCCN(C)C)c2ncnc(NCc3ccccc3)c12	inconclusive: 5.62 µM [inhibitor, single point]	
CC(=O)Nc1ccc(Sc2ncnc3scc(-c4ccccc4)c23)cc1	inconclusive: 17.8 µM [inhibitor, single point]	
CNC(=S)N/N=C/c1cn(Cc2ccc(C)cc2)c2ccccc12	inconclusive: 3.55 µM [inhibitor, partial curve, poor fit]	
CCN(CC)S(=O)(=O)c1cc(NC(=O)C(C)OC(=O)c2[nH]c(C)c(C(C)=O)c2C)ccc1C (configuration not stated)	inconclusive: 22.4 µM [inhibitor, single point]	
COc1ccc(Nc2nc(N3CCCC3)nc(N3CCOCC3)n2)cc1		inactive: -7.53%
N#Cc1ccc(C(=O)N2CCC3CC2c2cc(-c4ccccc4)ccc23)cc1 (configuration not stated)	inconclusive: 22.4 µM [inhibitor, single point]	
O=C1N[C@@H](c2ccccc2)COC(=O)[C@@H](Cc2ccc(F)cc2)CC/C=C/C[C@@H]1CC(=O)N(CCO)Cc1ccccc1	inconclusive: 15.8 µM [inhibitor, partial curve]	
Cc1ccccc1Cn1ccc(NC(=O)c2cnn3c2NC(c2ccccc2)CC3C(F)(F)F)n1 (configuration not stated)	active: 7.94 µM	
CN(C)CCCOc1ccc(-c2ccc3nncn3c2)cn1		inactive: 24.9%
CC(=O)NC(=S)Nc1cccc(S(=O)(=O)NC2=NCCC2)c1	inconclusive: 35.5 µM [inhibitor, single point]	
Cc1coc2c(C)c3oc(=O)c(CCC(=O)NCCc4ccc(Cl)cc4)c(C)c3cc12		inactive: -1.57%
COc1ccc(-c2noc(CCC(=O)N3CCN(c4ccccc4F)CC3)n2)cc1	inconclusive: 10 µM [inhibitor, partial curve]	
CCc1ccc(CNC(=O)c2ccc(-c3nc(CS(=O)(=O)c4ccccc4)c(C)o3)cc2)cc1		inactive: -19.1%
Cc1ccccc1OCCn1c(CCNC(=O)C(C)(C)C)nc2ccccc21	inconclusive: 35.5 µM [inhibitor, single point]	
CCC(=O)Nc1ccc(/C(C)=N/NC(=O)c2c(Br)c(C)nn2C)cc1	inconclusive: 1 µM [inhibitor, full curve, poor fit]	
COc1ccc(C(C)C)cc1S(=O)(=O)NCCc1c(C)[nH]c2ccc(C)cc12	inconclusive: 12.6 µM [inhibitor, partial curve, poor fit]	
COCCN(Cc1cn[nH]c1-c1ccc2cc(OC)ccc2c1)C(C)C	inconclusive: 35.5 µM [inhibitor, single point]	
Cc1nc2sc3c(c2c(=N)n1N)CC(C)(C)OC3		inactive: 2.7%
CCc1ccc2nc(N(CCCN(C)C)C(=O)c3ccc(C(=O)c4ccccc4)cc3)sc2c1	inconclusive: 22.4 µM [inhibitor, single point]	
O=C(OCc1ccccc1)c1ccc(NCc2cc(O)ccc2O)cc1	active: 10 µM	
CC1CCN(C(=O)C2CCC(=O)N(Cc3ccc(Cl)cc3)C2)CC1 (configuration not stated)	inconclusive: 15.8 µM [inhibitor, single point]	
COc1cc(C(=O)Sc2ccc(Cl)cc2)cc(OC)c1OC	inconclusive: 22.4 µM [inhibitor, single point]	

Compound	Potency	activity, negative = inhibition
CC(Oc1ccc(Cl)cc1Cl)C(=O)N/N=C1\CCCc2ccccc21 (configuration not stated)	inconclusive: 6.31 µM [inhibitor, single point]	
COc1ccc(N2CCN(C(=O)c3nc(SC)ncc3Cl)CC2)cc1		inactive: 15.5%
Nc1nc(NCCCN2CCOCC2)nc(Nc2cccc(F)c2)c1[N+](=O)[O-]	inconclusive: 31.6 µM [inhibitor, single point]	
Cc1ccc2nc(C(C)(C)C)c(Cc3ccccc3C(F)(F)F)n2c1	inconclusive: 11.2 µM [inhibitor, partial curve, poor fit]	
O=C(NCc1ccco1)/C(=C/c1cccnc1)NC(=O)c1ccco1	inconclusive: 5.62 µM [inhibitor, single point]	
CC1COC(Cn2c3ccccc3c3ccccc32)O1 (configuration not stated)		inactive: 23.4%
Cc1cc(OCc2nc(N)nc(N)c2-c2ccc(Cl)c(Cl)c2)ccc1[N+](=O)[O-]	inconclusive: 17.8 µM [inhibitor, partial curve, poor fit]	
CCOc1ccccc1NC(=S)N1CCC(NC(=O)NC23CC4CC(CC(C4)C2)C3)CC1	inconclusive: 14.1 µM [inhibitor, single point]	
COc1ccc(-n2nnnc2SC(C)C(=O)NC2CCCC2)cc1 (configuration not stated)		inactive: 0.684%
CCOc1ccc(OCC)c(NC(=O)CN(C)S(=O)(=O)c2ccc3c(c2)CCCC(=O)N3)c1		inactive: -12%
COc1cccc(C2C(C(=O)Nc3ccc(C)cc3C)=C(C)Nc3c(C(=O)Nc4cccc(C)c4)cnn32)c1OC (configuration not stated)		inactive: -2.98%
Cc1cccc(N=Nc2ccc(O)c3ncccc23)c1	inconclusive: 10 µM [inhibitor, partial curve, poor fit]	
COc1ccc(N(CC(=O)Nc2ccccc2Cl)S(=O)(=O)c2ccc(C)cc2)cc1OC		inactive: -21.8%
CCN(C(=O)CSc1nc2ccccc2n1Cc1cc(C)ccc1C)c1ccccc1	inconclusive: 17.8 µM [inhibitor, single point]	
Cc1ccc(C(=O)NCC(c2cccs2)S(=O)(=O)c2cccs2)cc1 (configuration not stated)	inconclusive: 35.5 µM [inhibitor, single point]	
CCC(Sc1nncn2c1cc1occc12)C(=O)Nc1ccc(C)c(Cl)c1 (configuration not stated)	inconclusive: 22.4 µM [inhibitor, single point]	
C[C@H](CCC(=O)OCc1cn(CC(=O)c2ccc(O)cc2)nn1)C1CC[C@H]2[C@@H]3CC[C@@H]4C[C@H](O)CC[C@]4(C)[C@H]3C[C@H](O)[C@]12C (some centres not stated)	inconclusive: 35.5 µM [inhibitor, single point]	
O=C(c1c(F)cccc1F)N1CCCC(c2nc(-c3ccc(F)cc3)no2)C1 (configuration not stated)	inconclusive: 15.8 µM [inhibitor, partial curve]	
Cc1c2cnn(CC(=O)NC(C)C)c(=O)c2c(C)n1Cc1ccccc1Cl	inconclusive: 0.112 µM [inhibitor, full curve, poor fit]	
Cc1ccc(N2C(=O)CSC2c2ccccn2)cc1Cl (configuration not stated)	inconclusive: 35.5 µM [inhibitor, single point]	
Cc1c(NC(=O)/C(C#N)=C/c2ccc(-c3cc(Cl)ccc3Cl)o2)c(=O)n(-c2ccccc2)n1C	inconclusive: 4.47 µM [inhibitor, full curve, poor fit]	
O=C1CCC(=O)N1c1ccc(NCCc2cccc(F)c2)c([N+](=O)[O-])c1		inactive: 5.44%
CCOC(=O)N1CCc2c(sc3c2c(=O)n(-c2ccc(CC)cc2)c(=O)n3CC(=O)c2ccc(F)cc2)C1		inactive: -14.9%

Compound	Potency	activity, negative = inhibition
COc1cc(C(=O)Nc2ccc3nc(SCc4ccccc4)sc3c2)cc(OC)c1OC		inactive: -30.7%
NC(=O)C1CCN(C(=O)c2cc3c(s2)CCCCC3)CC1	inconclusive: 3.16 µM [inhibitor, single point]	
O=C(CCl)N(c1ccccc1)c1c[nH]c2ccccc12	active: 8.91 µM	
CC(=O)c1cccc(NC(=O)CCCOc2ccc(C)cc2)c1	inconclusive: 7.08 µM [inhibitor, full curve]	
CC(C)Cn1[nH]c2c3c(ccc2c1=O)C(=O)c1ccccc1C3=O	inconclusive: 35.5 µM [inhibitor, single point]	
Cc1ccc(S(=O)(=O)NCc2c(Cl)cccc2Oc2ccccc2)cc1	inconclusive: 22.4 µM [inhibitor, single point]	
CNCc1c(OCc2ccccc2F)ccc2ccccc12	inconclusive: 25.1 µM [inhibitor, single point]	
CCCc1ccc(OCC(O)CN2CCN(c3ccccn3)CC2)cc1 (configuration not stated)		inactive: -5.75%
Cc1ccc(N(C)C(=O)c2cnc(N3CCOCC3)c3ccccc23)cc1C		inactive: 2.08%
CC(C)C(C(=O)Nc1nccs1)c1ccc(Cl)cc1 (configuration not stated)	inconclusive: 2 µM [inhibitor, partial curve, poor fit]	
CN1CCN(S(=O)(=O)c2ccc(SCCOc3ccc(Cl)cc3)nc2)CC1	inconclusive: 35.5 µM [inhibitor, single point]	
CCN(CCNC(=O)C1CCN(S(=O)(=O)c2cccc3nsnc23)CC1)c1ccccc1	inconclusive: 6.31 µM [inhibitor, single point]	
COc1cc(-c2noc(C)n2)cc(OC)c1OC		inactive: 2.08%
O=C(CCNS(=O)(=O)c1ccccc1)Nc1ccccc1		inactive: -9.43%
Cc1cc(Cn2nc(C(=O)NCC3CC3)cc2-c2ccccc2)on1	inconclusive: 0.447 µM [inhibitor, full curve, poor fit]	
CCC(C)(C)c1ccc(Oc2ccc(N)cc2)cc1	inconclusive: 31.6 µM [inhibitor, single point]	
Cc1ccc(F)cc1NC(=O)c1c(-c2ccccc2)noc1C	inconclusive: 35.5 µM [inhibitor, single point]	
CCn1c(CNc2ccc(Cl)cc2)nnc1SCc1ccc(Cl)cc1	inconclusive: 35.5 µM [inhibitor, partial curve, poor fit]	
CCOc1cccc(SCc2noc(C(=O)NCCOC)c2C(=O)O)c1	inconclusive: 14.1 µM [inhibitor, single point]	
COC(=O)c1ccc(CSc2nnc(Nc3cccc(OC)c3)s2)o1	inconclusive: 3.55 µM [inhibitor, full curve, poor fit]	
CCN(CC)c1ccc(/C=N\N2CCN(Cc3ccc(C)cc3)CC2)cc1	inconclusive: 20 µM [inhibitor, partial curve, poor fit]	
